Results from the supplement of paper PMC3334620.
Whole data set: some 33,000 sequences, median “E-score (-0.5 to 0.5)” near -0.04, cut for the highest 2% near 0.36. Some of the results follow.

molecular target: T1, Hmlalpha2 (UniProt P0CY09); experiment: PBM E-score (8-mer binding enrichment) (E-score (-0.5 to 0.5)); higher = stronger / more preferred TF binding; most listed sequences are background and not binding sites; settings: protein concentration: 200 nM; construct: GST-full length
T1 sequence: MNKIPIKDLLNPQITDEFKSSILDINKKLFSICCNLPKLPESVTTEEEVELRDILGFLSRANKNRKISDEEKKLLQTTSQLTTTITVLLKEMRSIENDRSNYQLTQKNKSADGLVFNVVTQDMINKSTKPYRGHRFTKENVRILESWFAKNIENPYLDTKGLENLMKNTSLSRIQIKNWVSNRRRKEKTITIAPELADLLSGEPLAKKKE
How it was run: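 E-scores (a modified Wilcoxon-Mann-Whitney statistic) were assigned by the Universal PBM Analysis Suite to every ungapped eight-base word pooled with its reverse complement. The input came from universal all-10-mer Agilent arrays made double-stranded by primer extension and probed with GST-tagged yeast transcription factors at about 100-200 nM. Fluorescent anti-GST detected bound protein, and masliner normalised the scans.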

Row | Sequence | PBM E-score
1 | ATTTCCGG | -0.251
2 | ATCTTCAG | -0.0793
3 | GTGTGGCA | -0.171
4 | AAATTGGT | 0.0284
5 | ATCTGTCA | -0.018
6 | AACCGAAT | 0.101
7 | GCAAGTAA | 0.29
8 | CTCGATTC | -0.00369
9 | ATTACGCC | 0.187
10 | ATGGCTTC | -0.0107
11 | ACTGAGAC | -0.0128
12 | CTGCGAGC | -0.211
13 | TCGGTTAA | 0.0804
14 | CGGGTGGA | -0.0165
15 | ACGCCGAC | 0.0712
16 | AAATATCC | 0.0945
17 | ATGCCGAG | 0.0282
18 | CCGGCTCA | -0.129
19 | ATACCTTC | -0.0798
20 | TGGTTACA | 0.258
21 | ACAGACTA | 0.0286
22 | ACCAGAAG | 0.0325
23 | ACCTTCAG | -0.00682
24 | GTAAATTA | 0.303
25 | CAGGCCGC | -0.201

Row | Sequence | PBM E-score
26 | AAGGCGCG | 0.0201
27 | ATTCCAAT | 0.119
28 | ATGCAATC | 0.183
29 | CGTATGAA | 0.185
30 | ATGGACTA | -0.0489
31 | AAACCCGC | -0.114
32 | CACACGAA | 0.233
33 | CTTCTTTA | 0.0914
34 | ACCGCCAG | -0.123
35 | GAAAGTAA | 0.0885
36 | AAGTGACG | 0.0755
37 | ACATCGGT | 0.0951
38 | AAGAGCAA | -0.258
39 | CCCATAGA | -0.2
40 | GTGCGCAC | 0.0838
41 | CGCTAAAA | 0.0305
42 | AATGACAT | 0.316
43 | TAAAGTAA | 0.211
44 | CATTGAAC | 0.222
45 | ACCTCAAG | -0.0467
46 | CTTGACCC | 0.00083
47 | GTTCTATA | 0.141
48 | AGATCAGG | -0.156
49 | AGCGTCAC | -0.209
50 | CTTCATGC | -0.196

Row | Sequence | PBM E-score
51 | GAGTCGAA | -0.158
52 | ATGATTCC | 0.0379
53 | CGCATATA | 0.191
54 | CCCCCCTA | -0.311
55 | GATATTCC | -0.216
56 | GGCGCGTA | 0.255
57 | TATGCACA | 0.0299
58 | TGGGATAA | -0.0252
59 | ACTTTACC | 0.151
60 | TCCTAGGA | -0.161
61 | ATCGGTCC | -0.237
62 | CCTGATAG | -0.115
63 | AGGCTTGC | -0.0658
64 | GTCTCGGA | -0.235
65 | AGAGCTCG | 0.00185
66 | CTTCAGGA | -0.163
67 | AGTCAAAA | 0.0605
68 | ACACTTCA | 0.127
69 | CCAGCATA | -0.125
70 | CTGGAAAA | -0.0326
71 | CTAGTTAA | 0.254
72 | CTGCGGAC | 0.0177
73 | ACTGCAGA | -0.138
74 | GGGTCCAC | -0.29
75 | AACTCGGC | 0.0254

Row | Sequence | PBM E-score
76 | ACCACAGC | -0.0275
77 | CAGGGGTC | -0.216
78 | CCTCGTCG | -0.159
79 | TGGAGCCA | -0.222
80 | AGATAGGC | -0.179
81 | TACTAAGA | 0.03
82 | CGAGTCCG | -0.0403
83 | CGACAGAG | -0.185
84 | AAGACTGG | 0.00969
85 | GGAGCAGA | -0.191
86 | AGAAGGTC | 0.00402
87 | GCCGAGGA | -0.0918
88 | GAGGTGGA | -0.206
89 | CGCGTAGA | 0.359
90 | AGAAGTAT | 0.0902
91 | ACCGAAGG | -0.206
92 | AGCACGGG | -0.19
93 | ACGTGCCG | 0.113
94 | CAATAGAG | -0.159
95 | CATACCTA | 0.0542
96 | TCGTGACA | -0.00677
97 | CCCCCGGG | -0.227
98 | GGCTGTGA | -0.0826
99 | GAGCAACC | -0.0516
100 | ATTGAATA | 0.233

Row | Sequence | PBM E-score
101 | ATTAGACG | -0.0757
102 | CGAACGGC | -0.221
103 | ATTATGAG | -0.0203
104 | ATCCACAG | -0.178
105 | AAAGTTGT | 0.163
106 | AACGAGGC | 0.0571
107 | AGTAGGGG | -0.302
108 | AGTCTTCA | -0.143
109 | GATTGCCA | -0.337
110 | AACCAAAT | 0.0969
111 | CTGCGTTA | 0.226
112 | GCATGACA | 0.188
113 | CTTCGGCC | -0.171
114 | ATAGACAT | 0.15
115 | GGAGACCC | -0.133
116 | CGGCTGCC | -0.142
117 | ACGGGCCG | 0.0403
118 | AGGATGTG | -0.00432
119 | GATTTAGC | -0.196
120 | TCCAGTCA | -0.168
121 | ATTTACTC | 0.301
122 | TAAACCAA | 0.239
123 | AGCGTAAT | 0.278
124 | AGGTCGGA | -0.164
125 | GCCCTTCA | -0.0954

Row | Sequence | PBM E-score
126 | TGCTTAAA | 0.105
127 | CATGTATC | 0.405
128 | CCAACGGG | -0.227
129 | CGGTATCA | 0.0147
130 | GACGTCCC | -0.0971
131 | AGAACATG | 0.36
132 | ACACAGGT | 0.261
133 | ATAAGTAG | 0.099
134 | AGTGGGAC | -0.101
135 | AGGTGGCC | -0.226
136 | CACAAGGG | -0.0508
137 | ATGCGAAA | 0.0514
138 | CTTATCTA | 0.136
139 | AGATGCCA | -0.254
140 | GGCCCGCA | -0.209
141 | CCTTCCAG | -0.286
142 | AATGAAGA | 0.0315
143 | CCATGACC | -0.348
144 | AGAGCGTG | 0.071
145 | AGCCGCGC | -0.171
146 | CCTTGACG | -0.164
147 | AATTACGA | 0.338
148 | GGTCTCCA | -0.145
149 | GAGTCTTA | -0.208
150 | ATGTCATA | 0.311

Row | Sequence | PBM E-score
151 | CACACCAA | 0.178
152 | GCCACCAA | -0.214
153 | GTTCTAGA | -0.00839
154 | TCGTCGAA | 0.148
155 | AGCTTTTG | 0.0638
156 | CTGCTCCA | -0.0373
157 | TATTTTCA | 0.143
158 | ACTCGTCG | -0.0933
159 | TCTGGGAA | -0.114
160 | AGCTACCT | 0.122
161 | AATCGACA | 0.255
162 | ATTGCGAG | -0.141
163 | CCTAGTTC | -0.153
164 | AAGTATAG | -0.192
165 | CAATGCGG | -0.0244
166 | AGTACAAC | 0.0989
167 | GGACACAC | -0.0238
168 | CACTAGGG | -0.26
169 | CGAGCGCG | -0.0497
170 | ACTCAGGG | -0.0229
171 | CCTATGGC | -0.358
172 | AAACGGTC | -0.117
